Laboratory results as given in the supplement of paper PMC11417369.
± gives the standard deviation of the averaged measurements. The list shows a part of the results.

System: PfAP2-LT AP2 domain (GST-tagged)
Test: gcPBM binding intensity (ln(normalized median fluorescence intensity)); higher = stronger DNA binding
Outline: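 Binding intensity values are the highest Masliner-normalised natural-log median intensity among replicate spots of either probe orientation. The binding step lasted 1 h in 1× PBS with 1% milk, 0.2 mg/ml BSA, 0.5% salmon testes DNA and 0.03% Triton X-100, using GST-tagged P. falciparum DNA-binding domains expressed in E. coli on an Agilent 4 × 180k array of primer-extended double-stranded 36-bp intergenic genomic probes plus negative controls. Alexa488 anti-GST antibody and a 488 nm scan detected bound protein.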

Sequence	gcPBM binding intensity (ln)
TATTTTTTATTTTTTTGTACATATTTGATAATTAAT [XGTACX_site316]	8.7 ± 0.47
AAATATTTATATATATGTACACATATAATATTTTTA [XGTACX_site2338]	8.52 ± 0.42
TATAACATTTTTTTCAAAATAGCTTTAGAAATAAAG [CACACA_negctrl_site718]	8.09 ± 0.42
ATTTATTTTTTACATTGTACATATTTATTCCTTTTA [XGTACX_site8028]	9.02 ± 0.56
TTTTTTTTTTTTTTTGCATGCAGGTTTTTACCCCTT [TGCATGCA_site381]	8.98 ± 0.53
TTATTTTCAAAATGTTGTACACACAAAAAAAAAAAA [XGTACX_site3151]	8.76 ± 0.43
TTTTTTTTCTTCAAGCGTACTTATTTGTAGAAAAAA [XGTACX_site1728]	8.38 ± 0.3
TATGTATATATATAAAGTACGCAAATTTATAATAAG [XGTACX_site8744]	8.8 ± 0.45
ATATGTGGAAATAGAGCACACATATATATAATATAT [CACACA_site8194]	9.39 ± 0.6
TTTTGTTTTAAAAGTACACACTTTTAATTAGATTTC [CACACA_site4788]	8.61 ± 0.44
AAAATACACAACATATATATATATATATATATATAT [XGTACX_negctrl_site21]	9.91 ± 0.11
TGATCAATGGATTTAACACACAAAAAAAAAAAAAAA [CACACA_site3845]	8.7 ± 0.48
TACATGAATAAACTTACACACACCCATGCATACATA [CACACA_site97]	9.61 ± 0.19
TGAAAAGGAAAATTTTGTACATATACATCAAGGATA [XGTACX_site656]	8.62 ± 0.38
AAAAAAAAGAATTTACGTACTTATTATTTATATTTT [XGTACX_site5701]	8.69 ± 0.4
ACTTTTTATTTTTTACTATATATATATATATATATG [TGCATGCA_negctrl_site463]	9.41 ± 0.35
ACTAACATATATTCAACACACATATACCTTCAACCC [CACACA_site3011]	9.36 ± 0.32
TATATATATATATACACACACACATATATATATATA [CACACA_site774]	9.84 ± 0.23
TTTTACAAAGTATGATGTACAAGTATATATAAATAT [XGTACX_site2072]	8.58 ± 0.45
CCCATTTAATATTGAGTGCATTTAAATAAATGTATT	8.62 ± 0.37
TCCCTTAAAATGATATGTACATAAAAATAAAAAAAA [XGTACX_site836]	8.54 ± 0.57
TATAAATTTAAAATGACACACACTAAAGTTATTTAA [CACACA_site6700]	8.73 ± 0.42
AACATAAGTAAGAATACATGCGGAAATTATATAGAA [TGCATGCA_site112]	9.03 ± 0.38

Sequence	gcPBM binding intensity (ln)
TAAATATTATAAATGATACACACTTAAAATACTCAC [CACACA_site2710]	8.78 ± 0.38
TTAAAAGAAAATAACACACACAAAAAAAAAAAAAAA [CACACA_site2117]	9.12 ± 0.49
TAAGGACTAATATTTGAACACACATATAATATATAC [CACACA_site9325]	8.88 ± 0.42
TATATATTTGTTCACACACACACAAAAAAAAAAAAA [CACACA_site2475]	9.47 ± 0.51
CATATATATATATATATATATATATTTATTTATTTA [TGCATGCA_negctrl_site165]	9.16 ± 0.11
GTCATCAAGTATTAAGTGCATTAAAAATAAAATATA	8.61 ± 0.48
AAAATTTTCTTTTTATGTACACATAATTTTACCGGA [XGTACX_site5276]	8.65 ± 0.49
TATATTTTACTCTTCACACATATACTCAATTTATAT [CACACA_site5357]	8.97 ± 0.49
AAAAGAAAAAGAAAAACACACATAAATATAAATATA [CACACA_site1879]	8.93 ± 0.64
CATATTTGGAAACACACACACATATTTATATATATA [CACACA_site3569]	9.62 ± 0.38
AAATTCAGGTTATATTTTAATTTTTTTTTGTTTTTT [CACACA_negctrl_site924]	8.46 ± 0.51
AATTTTTCATCAAGTTGTACAATTATTTGTTTGTTT [XGTACX_site3113]	9.04 ± 0.54
CATACACATACACATACACACGCATAGAAACATACG [CACACA_site8666]	9.55 ± 0.51
CAATATTTTTTATAGGGTACAAAAGATAAAAAAAAA [XGTACX_site6298]	8.7 ± 0.49
AAAACAATAATATACTGTACATATATATAATAACAT [XGTACX_site6188]	9.01 ± 0.46
GTACATACATAAAACACACACATATATATATATATA [CACACA_site1826]	10.17 ± 0.071
TGCTAATAATTATTTGTTTAGCAACAAAAAAAAAAA [CACACA_negctrl_site1541]	8.32 ± 0.5
TTCTTTTTAATTTATTTTTTCTTATAACAAGAAAAC [CACACA_negctrl_site201]	8.44 ± 0.54
GTAATATGTATCCATACACACATACATTTTATTTGC [CACACA_site4640]	9.21 ± 0.45
TCACATATGTTCCATTGTACTTGTAGTAATTTTTTC [XGTACX_site6473]	8.87 ± 0.34
ATAAAATGAAATATATGTACGCATCACTTGTTGAAC [XGTACX_site4530]	8.99 ± 0.36
TTCTTTTCTTTTTTCTTTTTTTTTTTCTTTTCTTTT [GTGCAC_negctrl_site630]	8.57 ± 0.64
AAAAAAAAAAAAAAAACATGCAAAATAATATATATA [TGCATGCA_site68]	8.74 ± 0.49

Sequence	gcPBM binding intensity (ln)
AGAAAAGGACATATATGTACTTATCAATATAGAAAC [XGTACX_site1042]	9.04 ± 0.48
ATGTAGATATATATCTGTACGTATATGTAAATATTA [XGTACX_site1516]	8.99 ± 0.47
ACACATTATAACAAGGTGCAATTTTTATACACATGT [GTGCAC_site9866]	9.15 ± 0.42
AATTCTTTTTATATATTAAATATTATTAATAAGTCA [CACACA_negctrl_site1488]	8.29 ± 0.45
CAAATATCTATTTAGTGTACTAATATATTCAATAAT [XGTACX_site2345]	8.53 ± 0.49
TATATAAAACCTTATTGTACTATTAGACTATGCTTA [XGTACX_site6026]	8.6 ± 0.57
ACAAAGACAATTTTGTTATATATAAAAAAAAAAAAT [CACACA_negctrl_site253]	8.59 ± 0.56
ATTAATTTTCCATTCACACATATATATATATATATA [CACACA_site6065]	9.5 ± 0.17
TACAAATATATATGCACACACATATCTGTATATGTG [CACACA_site5663]	9.58 ± 0.26
ATAGCATATATTTTTTGTACATATGTTATATATATA [XGTACX_site2184]	8.95 ± 0.33
GAAAAAAAAAAAAATACACACAAATTGGTATATAAC [CACACA_site6315]	9.06 ± 0.51
AAAATTTCATAAAGACGTACTATAAAAATAAAATTA [XGTACX_site4182]	8.56 ± 0.49
GCTATAATAAAATTTAAACACACGTAATATAATATA [CACACA_site2592]	8.74 ± 0.41
AATTGTATAAATGGAATAATGACTATGATTATACAT [GTGCAC_negctrl_site188]	8.97 ± 0.47
GTATATTTCTTTAAATGTACACATTTTTTTAAAGAG [XGTACX_site1225]	8.46 ± 0.38
AAAAATTCTTGGCGCACACACTTTAAAAGTTAAAAA [CACACA_site6430]	9.02 ± 0.42
CACTAATAGTGGATTACACACATATAGATGTATATA [CACACA_site7234]	8.95 ± 0.35
TATAAAAAATATCCTTTTTTTATACATCAATATATA [TGCATGCA_negctrl_site291]	8.2 ± 0.45
TATTAAAAGAAAATAACACACACAAAAAAAAAAAAA [CACACA_site8661]	9.07 ± 0.38
AAAATAAGCGTGAAACGTACATATTACATTATTATA [XGTACX_site8914]	8.78 ± 0.56
ATAATATATATATAGTGTACATTTGAATATATTTGA [XGTACX_site583]	8.72 ± 0.4
TTTTTGAAATAATGAAACAGCAAAAAAACAAAAATA [CACACA_negctrl_site221]	8.7 ± 0.47
AAAAAAAACAGACACACACACAAATATATAAAAATA [CACACA_site1172]	9.94 ± 0.35

Sequence	gcPBM binding intensity (ln)
AAGGTCATTTTATATTGTACATGAAATTGTTATGTA [XGTACX_site187]	8.71 ± 0.41
TATTACAAATATGGCACACATATATATATATATATT [CACACA_site3268]	9.28 ± 0.12
AATAATGAATACACATGTACAAAAATTTTTCTTACT [XGTACX_site1962]	8.84 ± 0.3
ATATATTTTGTATGTAGTACAATTTTATAATCATAT [XGTACX_site8373]	8.73 ± 0.42
TCAATTTGGAACGGTATGCACTAATTTTATATTTTT	8.79 ± 0.42
ATATACAGATAAATGTGTACTTAAATCTATTATATT [XGTACX_site2632]	8.74 ± 0.41
AAAATAAAAACAAAATCACACATTCCAGTTTTTTTT [CACACA_site5356]	8.62 ± 0.46
TTTTAAAATATCAACACACTCATTATTTTCTATATT [CACACA_site4740]	8.64 ± 0.47
TATATACATGTGAGAGTGCATATAGACATAAAAAAT	9.06 ± 0.54
TCATTCTATCTGTTCACACATACACAAAAAAAAAAA [CACACA_site5141]	8.49 ± 0.36
TTTATATTTCTCTTTAGTACATATTATATTCTTTTA [XGTACX_site1618]	8.73 ± 0.51
AATGAAAATAAATTAACACACAATTTTAATATTGTT [CACACA_site1306]	8.66 ± 0.45
AAACATCATAAATATACACACATATATATATATATA [CACACA_site620]	9.83 ± 0.13
TACACAAAATTTAAATGTACATTAAATATATGATGT [XGTACX_site2140]	8.75 ± 0.44
CTTTCGGTTGGAGAGGTGCGCTTCTCCTTTATAATA	8.76 ± 0.3
TGATAGCTAGCTATATGTACATATATATATATATAT [XGTACX_site393]	9.54 ± 0.39
ATTTATCTATAATATACACACATATAACAGACATAT [CACACA_site6469]	9.01 ± 0.33
AAAACGTATCACAAAAGTACAGATAGTTATAATATA [XGTACX_site185]	8.96 ± 0.47
CGAAACCATATGTACACACACATATATAAATATGTA [CACACA_site7082]	9.43 ± 0.44
ATATATCAACTCATATTATTTTCTTTTATTATTTAT [CACACA_negctrl_site276]	8.76 ± 0.49
